According to the supplement of paper PMC11417369:
± gives the standard deviation of the averaged measurements. The list shows a part of the results.

The sequences below were run on PfAP2-I AP2 domain 3 (GST-tagged) (assay: gcPBM binding intensity (ln(normalized median fluorescence intensity)); higher = stronger DNA binding).
Procedure, shortened: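 Alexa488 anti-GST antibody, scanned at 488 nm, detected GST-tagged P. falciparum DNA-binding domains that had been expressed in E. coli and incubated for 1 h on an Agilent 4 × 180k array. The array carried primer-extended double-stranded 36-bp intergenic genomic probes and negative controls. Binding intensity is the highest Masliner-normalised natural-log median intensity across replicate spots of either orientation of each probe.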
For “TATGTTATTATTTGTACACACACATATATATCCTTG [CACACA_site5910]”, the “gcPBM binding intensity (ln)” value was 8.01 ± 0.58. In the case of “AACAAATATCCCAAAAGTACACATATAAAAAAAAAA [XGTACX_site4126]”, the “gcPBM binding intensity (ln)” value is reported as 8.11 ± 0.67. In the case of “ATTATCTTATGTTATTTATTTGTCCCACATTTGTTA [TGCATGCA_negctrl_site402]”, the “gcPBM binding intensity (ln)” value is reported as 7.88 ± 0.86. In the case of “CATACACCCAGACACACACACATATATATATATATA [CACACA_site634]”, the “gcPBM binding intensity (ln)” value is reported as 9.35 ± 0.4. In the case of “TACTAACATAAAGACACACACCACATAAAATAAATA [CACACA_site7663]”, the “gcPBM binding intensity (ln)” value is reported as 7.92 ± 0.45. CTTATTTTGTTATAAGTGCATTTTTTAAAATTTCTT was tested, and the “gcPBM binding intensity (ln)” value was 9.05 ± 0.42. “GGAAGAAAACTTAGGTGTACATATAAAACGATATAA [XGTACX_site3118]” was tested, and the “gcPBM binding intensity (ln)” value was 7.96 ± 0.52. In the case of “TATGAACACAGACACACACACAAAAAAAAAAAAAAA [CACACA_site7037]”, the “gcPBM binding intensity (ln)” value is reported as 7.99 ± 0.51. In the case of “ATAGTATACAGACACACACACACACCGATATATATA [CACACA_site8511]”, the “gcPBM binding intensity (ln)” value is reported as 8.15 ± 0.61. In the case of “TTTATGTGTATGTTTACACACATAAAAAAATATATG [CACACA_site3039]”, the “gcPBM binding intensity (ln)” value is reported as 7.59 ± 0.41. For “TATACCTTTGCGTGTGCATGCGCTTATATATATTTT [TGCATGCA_site152]”, the “gcPBM binding intensity (ln)” value was 8.12 ± 0.86. With “TATTTTTAATATTTTGCATGCAGTATTTTATAAAAT [TGCATGCA_site250]” the “gcPBM binding intensity (ln)” value was 8.39 ± 0.47. For “ACAATTCCCGTATGATGTACTTTTTTCCACTTTTTC [XGTACX_site1811]”, the “gcPBM binding intensity (ln)” value was 8.21 ± 0.88. “TAAAGTTTTTTTTTAACACACACATAATAAAATAAA [CACACA_site8042]” was tested, and the “gcPBM binding intensity (ln)” value was 7.79 ± 0.43. For “TAAAAAAATAAAAAAAAAAAATTATAAAATTATATA [GTGCAC_negctrl_site302]”, the “gcPBM binding intensity (ln)” value was 7.06 ± 0.31. For “AAATATATTATAAATTGTACGTTTATATATATTATT [XGTACX_site5110]”, the “gcPBM binding intensity (ln)” value was 7.51 ± 0.46. For “GACACATATAAATATTAACACACATAATGAATTATA [CACACA_site8881]”, the “gcPBM binding intensity (ln)” value was 7.84 ± 0.42. With “TAACTAAGGAATAATACACACAGAAATATATATTTA [CACACA_site344]” the “gcPBM binding intensity (ln)” value was 7.61 ± 0.54. With “ACATTATGCCATAAATGTACACATACATATACACAG [XGTACX_site1330]” the “gcPBM binding intensity (ln)” value was 8.15 ± 0.36. “GATGATGTTACTTAAGTGCATATAAATTATATTTTA [GTGCAC_site9940]” was tested, and the “gcPBM binding intensity (ln)” value was 9.82 ± 0.24. In the case of “GTGTTCTTGTTATACACACACATATTTATATTTATA [CACACA_site6615]”, the “gcPBM binding intensity (ln)” value is reported as 8.22 ± 0.5. For “TAGTATCAATCTTATACATGCATAAAATAATTATAA [TGCATGCA_site1052]”, the “gcPBM binding intensity (ln)” value was 7.73 ± 0.47. With “TTTATTTATATAATTACACACATATATACGCAAATG [CACACA_site2794]” the “gcPBM binding intensity (ln)” value was 7.78 ± 0.31. For “AAAGTATAGATGTATACACACACCAAACGTTAAAAA [CACACA_site3081]”, the “gcPBM binding intensity (ln)” value was 7.91 ± 0.85. For “TTTTATTCATTAATTTGTACTTATCCTTTTGCTTAA [XGTACX_site1243]”, the “gcPBM binding intensity (ln)” value was 7.76 ± 0.84. In the case of “TCATTAATTAAATCTTGTACATATTCATATATATAT [XGTACX_site2241]”, the “gcPBM binding intensity (ln)” value is reported as 8.86 ± 0.042. With “TATATATATAACAACACACACAGATCATAAAACTGC [CACACA_site2161]” the “gcPBM binding intensity (ln)” value was 8.82 ± 0.37. In the case of “AAAAAAAAAAAAAACACACACAAATTTAATATATAT [CACACA_site1695]”, the “gcPBM binding intensity (ln)” value is reported as 8.04 ± 0.67. “TCCCAAGGAGTAGGCACACATAAAATATTATACATA [CACACA_site717]” was tested, and the “gcPBM binding intensity (ln)” value was 7.84 ± 0.41. In the case of “TATATTTATTTTAACACACACATATATATATTATAT [CACACA_site4729]”, the “gcPBM binding intensity (ln)” value is reported as 7.86 ± 0.41. In the case of “AAAAAAAAAAAAAAAACACACACAAATTTAATATAT [CACACA_site8492]”, the “gcPBM binding intensity (ln)” value is reported as 8.64 ± 0.59. In the case of “AAAATTAAAGTAAGGACACACATATATAATACATAT [CACACA_site823]”, the “gcPBM binding intensity (ln)” value is reported as 7.86 ± 0.59. “TACACCAAAAAAAAACGTACAAAATCCCACCCAGAC [XGTACX_site4622]” was tested, and the “gcPBM binding intensity (ln)” value was 8.88 ± 0.87. In the case of “TACAACATATTCAAATGTACAAATATAGGAATGAAA [XGTACX_site2730]”, the “gcPBM binding intensity (ln)” value is reported as 7.89 ± 0.67. In the case of “AGCGTATTATACTGACGTACATTTTATGTAACTCCA [XGTACX_site2715]”, the “gcPBM binding intensity (ln)” value is reported as 7.65 ± 0.42. In the case of “AACATAAAATGGATATGTACATAAAAATATATACTC [XGTACX_site7775]”, the “gcPBM binding intensity (ln)” value is reported as 7.82 ± 0.39. With “TTATGTATTCATAACACATGCAAATAGGATCATATA [TGCATGCA_site731]” the “gcPBM binding intensity (ln)” value was 7.93 ± 0.56. With “CGTTAGAGGGCTTTATCACACATGAAAAAAAAAAAA [CACACA_site5155]” the “gcPBM binding intensity (ln)” value was 8.18 ± 0.63. “ATATGATTTCACAAGACACACACATACAAATTTATA [CACACA_site9296]” was tested, and the “gcPBM binding intensity (ln)” value was 8.12 ± 0.49. With “CACACGCACAGACACACACACACATATAAATATGTA [CACACA_site6300]” the “gcPBM binding intensity (ln)” value was 8.3 ± 0.23. With “TTATATAAACACCAACGTACGTTCATTTAACATAAC [XGTACX_site5250]” the “gcPBM binding intensity (ln)” value was 8.03 ± 0.49. “TATATATATATATATTGTACATATGTGGTATAAATG [XGTACX_site6108]” was tested, and the “gcPBM binding intensity (ln)” value was 9.55 ± 0.28. For “ATATTACATATGTGCTGTACGCAATATATTATATCT [XGTACX_site1520]”, the “gcPBM binding intensity (ln)” value was 8.38 ± 0.35. “GCATATCTATTTTCACGTACACAAACATGTATATAT [XGTACX_site3722]” was tested, and the “gcPBM binding intensity (ln)” value was 8.39 ± 0.6. With “AAGAACTTTAATAAGTGTACATTTATTGGAAACATG [XGTACX_site2995]” the “gcPBM binding intensity (ln)” value was 7.97 ± 0.42. “TAAAATATAGAAAATTTTATTAAATATAAAAAAATA [CACACA_negctrl_site1441]” was tested, and the “gcPBM binding intensity (ln)” value was 7.23 ± 0.55. “AAAAATATATATTCAGTGCATATAACAAAAATTATA [GTGCAC_site9794]” was tested, and the “gcPBM binding intensity (ln)” value was 9.66 ± 0.12. “CATATATAACCTATAGCACACATATATAATATATAT [CACACA_site8544]” was tested, and the “gcPBM binding intensity (ln)” value was 8.48 ± 0.26. “ATTAAATAAAAAAACACACACATATATACATATATA [CACACA_site3445]” was tested, and the “gcPBM binding intensity (ln)” value was 7.65 ± 0.52. “CATAATAATAGAAACACACACACATAGACATATATA [CACACA_site1308]” was tested, and the “gcPBM binding intensity (ln)” value was 7.67 ± 0.53. For “ACATATTAATTATTATGACATACATATCAGTTATTA [TGCATGCA_negctrl_site126]”, the “gcPBM binding intensity (ln)” value was 7.58 ± 0.45. “TATATTATTTTATATTGTACATACCAAATATTATAT [XGTACX_site1693]” was tested, and the “gcPBM binding intensity (ln)” value was 7.74 ± 0.49. “AGAAAAATAAACAAATGTACAAATTATTACTATATA [XGTACX_site1087]” was tested, and the “gcPBM binding intensity (ln)” value was 7.63 ± 0.34. For “CATGTGATAATGATTAGTACATAAACAAAAATATAT [XGTACX_site5866]”, the “gcPBM binding intensity (ln)” value was 7.99 ± 0.86. “TTTAATTTATATTTTGTGCACATCTTATTATATATA [GTGCAC_site9630]” was tested, and the “gcPBM binding intensity (ln)” value was 10.5 ± 0.21. In the case of “AATTTTGTTTAGCACACACACATACATACATACATA [CACACA_site5707]”, the “gcPBM binding intensity (ln)” value is reported as 8.86 ± 0.29. For “TATAATATTAATGACTGTACTCATACGTATATTTAT [XGTACX_site5493]”, the “gcPBM binding intensity (ln)” value was 7.79 ± 0.3.
